PMC6467484
These are yes or no findings as the source states them, for the method shown. Some binding calls cover weakened binding; strength is not graded here. For some of these results: Tags and fused reporters may be left off the sequences shown.

By UniProt entry, the sequences of proteins in these tests, tags left out.
UniProt Q12306: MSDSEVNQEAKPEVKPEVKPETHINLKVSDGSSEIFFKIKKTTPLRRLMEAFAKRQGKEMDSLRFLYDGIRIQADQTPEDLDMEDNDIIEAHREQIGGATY
UniProt P15732: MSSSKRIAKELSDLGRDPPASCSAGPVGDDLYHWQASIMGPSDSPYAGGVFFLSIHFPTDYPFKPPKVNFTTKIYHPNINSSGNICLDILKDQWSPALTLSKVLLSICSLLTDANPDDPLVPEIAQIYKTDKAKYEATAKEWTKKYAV
UniProt P39705: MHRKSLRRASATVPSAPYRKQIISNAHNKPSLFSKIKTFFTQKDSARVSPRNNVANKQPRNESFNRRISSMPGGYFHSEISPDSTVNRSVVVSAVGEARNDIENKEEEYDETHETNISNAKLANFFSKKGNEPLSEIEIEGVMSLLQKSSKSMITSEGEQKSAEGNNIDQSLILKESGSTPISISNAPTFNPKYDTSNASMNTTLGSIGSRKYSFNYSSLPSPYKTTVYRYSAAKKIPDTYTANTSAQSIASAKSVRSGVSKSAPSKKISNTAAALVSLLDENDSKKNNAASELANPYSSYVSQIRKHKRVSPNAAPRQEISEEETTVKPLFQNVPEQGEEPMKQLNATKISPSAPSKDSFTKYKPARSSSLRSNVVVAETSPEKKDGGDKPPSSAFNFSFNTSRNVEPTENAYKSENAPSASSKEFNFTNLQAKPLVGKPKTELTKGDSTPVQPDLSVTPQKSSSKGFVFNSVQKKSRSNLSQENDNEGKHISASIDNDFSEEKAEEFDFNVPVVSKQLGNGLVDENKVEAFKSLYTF
UniProt Q02821: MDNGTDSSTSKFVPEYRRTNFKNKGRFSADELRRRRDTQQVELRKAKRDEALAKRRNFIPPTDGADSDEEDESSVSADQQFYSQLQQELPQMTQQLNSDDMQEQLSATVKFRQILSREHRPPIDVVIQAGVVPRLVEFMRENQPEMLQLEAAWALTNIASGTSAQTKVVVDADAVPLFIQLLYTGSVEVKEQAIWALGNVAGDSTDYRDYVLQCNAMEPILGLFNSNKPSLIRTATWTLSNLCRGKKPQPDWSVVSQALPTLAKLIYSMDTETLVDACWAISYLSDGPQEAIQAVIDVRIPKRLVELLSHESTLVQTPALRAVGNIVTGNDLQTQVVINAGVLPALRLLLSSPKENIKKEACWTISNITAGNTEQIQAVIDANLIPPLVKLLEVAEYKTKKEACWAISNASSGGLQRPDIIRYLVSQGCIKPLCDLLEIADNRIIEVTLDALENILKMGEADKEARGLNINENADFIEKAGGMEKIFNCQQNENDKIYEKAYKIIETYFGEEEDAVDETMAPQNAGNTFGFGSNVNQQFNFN

target: LexA–Nup2 (Saccharomyces cerevisiae) (UniProt P32499); assay: two-hybrid; DupLEX-A system; EGY48 cells with LexA operon–LEU2 reporter, LexA–Nup2 bait mated with B42 activation domain prey strains; growth on histidine- and leucine-deficient medium, 30°C, 2 d

| Molecule | binding |
| --- | --- |
| B42–SUMO (Smt3) (from UniProt Q12306 1-101) | binds |
| B42–Ubc5 (from UniProt P15732 1-148) (enzyme) | no binding |
| B42–Aos1 (enzyme, UniProt Q06624 1-347) MDMKVEKLSEDEIALYDRQIRLWGMTAQANMRSAKVLLINLGAIGSEITKSIVLSGIGHLTILDGHMVTEEDLGSQFFIGSEDVGQWKIDATKERIQDLNPRIELNFDKQDLQEKDEEFFQQFDLVVATEMQIDEAIKINTLTRKLNIPLYVAGSNGLFAYVFIDLIEFISEDEKLQSVRPTTVGPISSNRSIIEVTTRKDEEDEKKTYERIKTKNCYRPLNEVLSTATLKEKMTQRQLKRVTSILPLTLSLLQYGLNQKGKAISFEQMKRDAAVWCENLGVPATVVKDDYIQQFIKQKGIEFAPVAAIIGGAVAQDVINILGKRLSPLNNFIVFDGITLDMPLFEF | binds |
| B42–Ubc9 (enzyme, UniProt P50623 1-157) MSSLCLQRLQEERKKWRKDHPFGFYAKPVKKADGSMDLQKWEAGIPGKEGTNWAGGVYPITVEYPNEYPSKPPKVKFPAGFYHPNVYPSGTICLSILNEDQDWRPAITLKQIVLGVQDLLDSPNPNSPAQEPAWRSFSRNKAEYDKKVLLQAKQYSK | binds |
| B42–Siz1 (enzyme, UniProt Q04195 1-904) MINLEDYWEDETPGPDREPTNELRNEVEETITLMELLKVSELKDICRSVSFPVSGRKAVLQDLIRNFLQNALVVGKSDPYRVQAVKFLIERIRKNEPLPVYKDLWNALRKGTPLSAITVRSMEGPPTVQQQSPSVIRQSPTQRRKTSTTSSTSRAPPPTNPDASSSSSSFAVPTIHFKESPFYKIQRLIPELVMNVEVTGGRGMCSAKFKLSKADYNLLSNPNSKHRLYLFSGMINPLGSRGNEPIQFPFPNELRCNNVQIKDNIRGFKSKPGTAKPADLTPHLKPYTQQNNVELIYAFTTKEYKLFGYIVEMITPEQLLEKVLQHPKIIKQATLLYLKKTLREDEEMGLTTTSTIMSLQCPISYTRMKYPSKSINCKHLQCFDALWFLHSQLQIPTWQCPVCQIDIALENLAISEFVDDILQNCQKNVEQVELTSDGKWTAILEDDDDSDSDSNDGSRSPEKGTSVSDHHCSSSHPSEPIIINLDSDDDEPNGNNPHVTNNHDDSNRHSNDNNNNSIKNNDSHNKNNNNNNNNNNNNNDNNNSIENNDSNSNNKHDHGSRSNTPSHNHTKNLMNDNDDDDDDRLMAEITSNHLKSTNTDILTEKGSSAPSRTLDPKSYNIVASETTTPVTNRVIPEYLGNSSSYIGKQLPNILGKTPLNVTAVDNSSHLISPDVSVSSPTPRNTASNASSSALSTPPLIRMSSLDPRGSTVPDKTIRPPINSNSYTASISDSFVQPQESSVFPPREQNMDMSFPSTVNSRFNDPRLNTTRFPDSTLRGATILSNNGLDQRNNSLPTTEAITRNDVGRQNSTPVLPTLPQNVPIRTNSNKSGLPLINNENSVPNPPNTATIPLQKSRLIVNPFIPRRPYSNVLPQKRQLSNTSSTSPIMGTWKTQDYGKKYNSG | binds |
| B42–Siz2 (enzyme, UniProt Q12216 1-726) MASVMSNNNNNNNNNNASYMFTNPLSNTGGGLINEIKDAINEMEQLKVLELKQICKSLDLSITGKKAVLQDRIKQFLRKSCDIGHIDPWRPKAIKILIAKVRINSSLPKYSTLWETLKTGAFKHPVASGQLPVTALQSTALPPYSQQQALAYSFTSPFYKPIVQIPDANKKLKQSAGRGCTKMKFKVSKSNHDLLKSNKSYKLYLFSGFSIPFIYETVGHEAIDFPYPCELVFNGTKLEDNVKGLKKQNGTGNPANLTPYLKVPTEMNHLDLHYLNIDKEYSISCFIVEVFSPEALLGKILKRPKIIKQATTAYIKRTLNEQDDDDIITTSTVLSLQCPISCTRMKYPAKTDQCKHIQCFDALWFLHSQSQVPTWQCPICQHPIKFDQLKISEFVDNIIQNCNEDVEQVEISVDGSWKPIHNSSAVITDTVNQNHSVKNENQGTVKQEQDYDSRNAFDTNLRNGSNHNEPEIISLDSSDDEAFIPASKSFPTHVNPRNDQLRADIFPSESEGSSDYNPNHTSTPKGSPTMDQDNYQDAFQMRSFLNQGATTNINDTPTNNSSINSFVTATNGDSRIFYNRGPSTPLLPAVLQNLTNQTEAQRNPYGPNYNTTAQDRNLLGIEGDLPPIPPVDPNSEAETELPTRTTSAAHLPPYIHVSTSGHGDDGKIRKRRHSNVSIYIPKNPYATLMKRRPQANHAIMNKTLAQTNDFNTSAQDNSEVVDLTSD | binds |
| B42–Mms21 (enzyme, UniProt P38632 1-267) MALNDNPIPKSVPLHPKSGKYFHNLHARDLSNIYQQCYKQIDETINQLVDSTSPSTIGIEEQVADITSTYKLLSTYESESNSFDEHIKDLKKNFKQSSDACPQIDLSTWDKYRTGELTAPKLSELYLNMPTPEPATMVNNTDTLKILKVLPYIWNDPTCVIPDLQNPADEDDLQIEGGKIELTCPITCKPYEAPLISRKCNHVFDRDGIQNYLQGYTTRDCPQAACSQVVSMRDFVRDPIMELRCKIAKMKESQEQDKRSSQAIDVL | no binding |
| B42–Cst9 (enzyme, UniProt Q06032 1-482) MGGYLAIVFIPQTNTKSMREKKQKCLKQVRRLSLISPKKYIMPDSIFEQPFVYCGVCHRRTSHGDPLRLTSCAHILCSQHSPLTSKVCPICRSSDISIINLVESKQLPTDIRIFFEPLPPLLESLYNVSQFQLNGLSKQCQYYQNHCLKLREKCARQQQLLYQAKIELDSMAILKKRIQELESVLNHNNVSSMSVGVLPTRNSHQNHYQPPPTVDLTVDDNSLEEFEAKSFIKKLKKNSSLRNSSKNNNGTVTPSTSGRVNKNQPLFMETLNNPNRNSIPPPGMNPNANSNLPNISTIAESTNLNRFSFSPVRVAKGFDGKLPNLDILTNNGSVSSKNISRLSSASLQPSSPLSSSSNRLILPNSNLKELHHSNTPLTSTSTQFPSALEKLKITRKRNNTISGSNRITHNLSSHVRSSGLAFSSSSNSLQQSKLPKSNILKRSNSTQQLTNTHLKSDNHLPPRSSNTVLGSSKKNNKFRRIR | no binding |

target: MBP–Nup60 (Saccharomyces cerevisiae) (UniProt P39705); assay: pull-down; MBP–Nup60 coupled to amylose agarose resin; GST–Nup2N processed for in vitro SUMOylation with E1, Ubc9 and Smt3, with or without ATP; bound proteins detected by anti-GST western blot; both purified

| Molecule | binding |
| --- | --- |
| GST–Nup2N (recombinant GST-conjugated Nup2 N-terminal residues 1–174), SUMO-unconjugated (domain or fragment, UniProt P32499 1-174) MAKRVADAQIQRETYDSNESDDDVTPSTKVASSAVMNRRKIAMPKRRMAFKPFGSAKSDETKQASSFSFLNRADGTGEAQVDNSPTTESNSRLKALNLQFKAKVDDLVLGKPLADLRPLFTRYELYIKNILEAPVKSIENPTQTKGNDAKPAKVEDVQKSSDSSSEDEVKVEGP | binds |

target: recombinant importin α (Srp1) (Saccharomyces cerevisiae) (UniProt Q02821); assay: pull-down; in vitro interaction of SUMO-conjugated and unconjugated Nup2 with recombinant importin α (Srp1); format in Fig. S2C, not shown; both purified

| Molecule | binding |
| --- | --- |
| GST–Nup2N (recombinant GST-conjugated Nup2 N-terminal residues 1–174), SUMO-unconjugated (domain or fragment, UniProt P32499 1-174) MAKRVADAQIQRETYDSNESDDDVTPSTKVASSAVMNRRKIAMPKRRMAFKPFGSAKSDETKQASSFSFLNRADGTGEAQVDNSPTTESNSRLKALNLQFKAKVDDLVLGKPLADLRPLFTRYELYIKNILEAPVKSIENPTQTKGNDAKPAKVEDVQKSSDSSSEDEVKVEGP | binds |
